Results as given in PMC4336329 (PLoS ONE, 2015).
In all, about 310,000 compounds went through this assay and about 2,200 (0.71%) showed an effect of 50% or more. The effect is printed as a negative number. Some of the results follow.

Each molecule was assayed against human ether-à-go-go-related gene (hERG) potassium channel (human, UniProt Q12809) (assay: primary screen, population patch clamp on CHO cells stably expressing hERG).
Chain of human ether-à-go-go-related gene (hERG) potassium channel (Q12809 whole entry, looked up): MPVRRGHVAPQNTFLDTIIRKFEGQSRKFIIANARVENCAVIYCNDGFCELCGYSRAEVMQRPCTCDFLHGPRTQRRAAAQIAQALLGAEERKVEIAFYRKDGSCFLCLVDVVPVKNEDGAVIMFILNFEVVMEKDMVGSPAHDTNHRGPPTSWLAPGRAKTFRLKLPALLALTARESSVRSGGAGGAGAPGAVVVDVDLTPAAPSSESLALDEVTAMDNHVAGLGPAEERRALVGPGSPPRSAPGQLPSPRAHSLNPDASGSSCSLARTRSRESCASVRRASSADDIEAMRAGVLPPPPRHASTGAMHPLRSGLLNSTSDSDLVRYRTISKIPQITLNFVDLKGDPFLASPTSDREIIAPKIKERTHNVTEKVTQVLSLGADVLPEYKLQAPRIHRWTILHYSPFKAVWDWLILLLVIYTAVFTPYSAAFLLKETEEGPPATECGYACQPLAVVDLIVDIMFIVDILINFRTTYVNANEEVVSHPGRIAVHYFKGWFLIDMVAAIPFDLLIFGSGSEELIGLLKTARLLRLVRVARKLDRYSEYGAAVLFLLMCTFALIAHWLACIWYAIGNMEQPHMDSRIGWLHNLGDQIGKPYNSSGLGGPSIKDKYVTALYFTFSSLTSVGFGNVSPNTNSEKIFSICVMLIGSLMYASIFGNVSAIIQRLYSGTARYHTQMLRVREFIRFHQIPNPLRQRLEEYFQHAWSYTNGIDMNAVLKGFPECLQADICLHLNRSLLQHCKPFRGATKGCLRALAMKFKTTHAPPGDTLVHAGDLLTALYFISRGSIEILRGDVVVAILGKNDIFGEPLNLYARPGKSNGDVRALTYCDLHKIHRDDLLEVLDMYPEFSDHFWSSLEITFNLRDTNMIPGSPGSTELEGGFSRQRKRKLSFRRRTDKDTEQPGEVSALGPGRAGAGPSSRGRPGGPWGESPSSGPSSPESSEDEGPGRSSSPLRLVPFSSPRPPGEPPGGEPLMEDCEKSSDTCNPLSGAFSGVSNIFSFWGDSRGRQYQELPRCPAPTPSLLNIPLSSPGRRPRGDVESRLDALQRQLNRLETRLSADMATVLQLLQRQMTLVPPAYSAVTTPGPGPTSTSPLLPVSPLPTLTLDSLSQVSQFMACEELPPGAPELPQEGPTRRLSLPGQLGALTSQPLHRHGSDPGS

Row | Compound | hERG current change (%, negative = inhibition) at 1uM [%]
1 | CC(C)(C)C(=O)N1CCC(O)(CS(=O)(=O)Cc2ccc(Cl)cc2)CC1 | -0.555
2 | CCOc1ccccc1/C=c1\sc2nc(-c3ccco3)nn2c1=O | 11.3
3 | Cc1ccc(OCC(=O)NNC(=O)Cc2ccc(S(=O)(=O)N3CCOCC3)s2)cc1 | 17
4 | Cc1nn(CC(=O)Nc2ccc(Cl)c(S(=O)(=O)N(C)C)c2)c(C)c1[N+](=O)[O-] | -2.98
5 | COc1ccc(C(=O)Nc2c(C(C)(C)C)nn(C)c2C(C)(C)C)cc1 | 4.78
6 | Cn1nc(C(=O)NCc2cccc(Cl)c2)c2c1-c1ccccc1S(=O)(=O)C2 | 11.2
7 | Cc1c2cnn(CC(=O)N3CCC4(CC3)OCCO4)c(=O)c2c(C)n1Cc1cccc(Cl)c1 | -0.167
8 | CN(C)CCNC(=O)CN1C(=O)CSc2ccc(S(=O)(=O)N3CCCCC3)cc21 | 19
9 | CC(=O)N1N=C(c2c(O)n(C)c(=O)n(C)c2=O)CC1c1ccccc1 (centres unmarked) | 10.3
10 | COc1ccc(C2(CNC(=O)c3ccc(OCC(C)C)cc3)CCOCC2)cc1 | 3.46
11 | Cc1ccc(N(CC(=O)NCc2ccc(F)cc2)C(=O)c2ccco2)cc1C | -4.53
12 | O=C(Oc1cc(=O)oc2ccccc12)c1ccco1 | 10.4
13 | CCC(=O)Nc1cccc(-n2nnnc2SCC(=O)c2ccc(C)c(C)c2)c1 | 11.3
14 | Cc1ccc(NC(=O)CN2C(=O)COc3ccc(S(=O)(=O)N4CCOCC4)cc32)cc1F | 18
15 | COc1ccc(OC)c(S(=O)(=O)NCc2ccccn2)c1 | 14.4
16 | Cc1noc(C)c1S(=O)(=O)N(CC(=O)NC1CCC(C)CC1)c1ccc(C(C)C)cc1 (centres unmarked) | 18
17 | O=C(Nc1ccc(N2CCOCC2)c(Cl)c1)c1cc2ccccc2o1 | -2.3
18 | Cc1ccc(C(C)NC(=O)C2CCCC2)c(C)c1 (centres unmarked) | -0.786
19 | COc1ccc(C(C)=O)cc1CSc1nc2ccccc2c(=O)n1-c1ccccc1 | 2.13
20 | CC(=O)Nc1ccc(S(=O)(=O)NC(C)CCc2ccccc2)cc1 (centres unmarked) | 18.3
21 | O=C(O)c1cccc(S(=O)(=O)N(Cc2ccccc2)c2ccccc2)c1 | 13.8
22 | CCC/C=N/NC(=O)c1cc(-c2ccccc2)nc2ccccc12 | 8.58
23 | O=C(Nc1ccccc1Br)c1ccccc1-c1ccccc1 | 11
